Laboratory results from patent US20190359666A1 (ACADEMIA SINICA, published 2019).

Tests used:
IGF-1 [1] = molecular target: T1, IGF-1 (UniProt P05019 part only); assay: biotinylated IGF-1 ELISA on Fc-captured chimera, after overnight in PBS at 37 C, against the 4 C PBS control; experiment 4-81
T1 construct: Biotinylated IGF-1 is written as the same molecule; also called biotinylated IGF-1; IGF-1-bio
Procedure: (§1) Plates were coated with goat anti-human Fc antibody, blocked and then incubated with chimera as in the Fc ELISA. Biotinylated IGF-1 (GroPep) or VEGF-Biotin (R&D Systems VEGF biotinylated with sulfo-NHS-LC-biotin as per instructions (Pierce) was added for 2 hours followed by streptavidin-HRP (Jackson Immunoresearch) for 30 minutes. Chromogenic development with tetramethyl benzidine was performed as described above.
(§2) To test the stability of the present chimeras, some purified chimeras (see, Table 4) were incubated with PBS or a conditioned medium from the MCF-7 cell line overnight at 37° C. and PBS overnight at 4° C. The IGF-1 binding and VEGF binding were measured using the biotinylated IGF-1 and VEGF.

IGF-1 [2] = molecular target: T1, IGF-1; assay: biotinylated IGF-1 ELISA on Fc-captured chimera, after overnight in MCF-7 conditioned medium at 37 C, against the 4 C PBS control; experiment 4-81
Procedure: as §1, §2

IGF-1 [3] = molecular target: T1, IGF-1; assay: biotinylated IGF-1 ELISA on Fc-captured chimera, after overnight in PBS at 37 C, against the 4 C PBS control; experiment 3-192
Procedure: as §1, §2

IGF-1 [4] = molecular target: T1, IGF-1; assay: biotinylated IGF-1 ELISA on Fc-captured chimera, 4 C PBS control (the reference); experiment 4-81
Procedure: as §1, §2

IGF-1 [5] = molecular target: T1, IGF-1; assay: biotinylated IGF-1 ELISA on Fc-captured chimera, after overnight in MCF-7 conditioned medium at 37 C, against the 4 C PBS control; experiment 3-192
Procedure: as §1, §2

bFGF = molecular target: T2, bFGF (UniProt P09038 part only, limits assumed); assay: Biacore SPR
T2 construct: also called basic fibroblast growth factor

IGF-1 [6] = molecular target: T1, IGF-1; assay: cell-based or functional assay
IGF-1 [7] = molecular target: T1, IGF-1; assay: biotinylated IGF-1 ELISA on Fc-captured chimera, 4 C PBS control (the reference); experiment 3-192
Procedure: as §1, §2

T1 sequence (P05019 49-118 limits assumed): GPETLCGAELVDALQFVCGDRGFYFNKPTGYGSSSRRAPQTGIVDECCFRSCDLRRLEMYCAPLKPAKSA
Sequence of bFGF (P09038 143-288 limits assumed): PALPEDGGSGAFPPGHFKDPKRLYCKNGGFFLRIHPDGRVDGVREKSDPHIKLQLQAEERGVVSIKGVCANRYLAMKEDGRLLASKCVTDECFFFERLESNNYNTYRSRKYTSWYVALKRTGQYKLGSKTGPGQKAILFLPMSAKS

B1: IGFBP3-Fc (Fc fusion)
chain: not shown
notes: IGFBP3 fused to IgG1 Fc; also called native IGFBP3 Fc dimer
- IGF-1 binding remaining over controls (IGF-1 [1]): 80%
- IGF-1 binding remaining over controls (IGF-1 [2]): 28%
- IGF-1 binding remaining over controls (IGF-1 [3]): 41%
- IGF-1 binding remaining over controls (IGF-1 [4]): 100%
- IGF-1 binding remaining over controls (IGF-1 [5]): 24%
- binding result (bFGF): binds
- EC50 in inhibiting IGF-1 induced proliferation of hep3B cells (IGF-1 [6]): 47 nM
- IGF-1 binding remaining over controls (IGF-1 [7]): 100%
